Among the data in the RNAGym collection of RNA variant scans (doi:10.1093/nar/gkz1192) are self-cleavage values, retold here.

The source gives no read counts; variants with many changes may rest on few reads.

To fix the notation:
B1: CPEB3 Ribozyme (parent)
chain: UAACAGGGGGCCACAGCAGAAGCGUUCACGUCGCAGCCCCUGUCAGAUUCUGGUGAAUCUGCGAAUUCUGCUGUAUAUCUC

Variants of B1 are the subject of the data set. As to the kind of experiment: self-cleavage, relative activity (ratio to wild type); higher = more cleavage; in vitro, sequencing. In short, it runs like this: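 CPEB3 self-cleaving ribozyme mutant libraries were made by rounds of error-prone PCR, barcoded, and transcribed in vitro with T7 RNA polymerase for 5 hours at 37°C. Cleavage occurred during transcription and a 15 min DNase I step before EDTA stop. RNAs were reverse transcribed with template switching and Illumina-sequenced, with DNA sequencing mapping barcodes to variants. Relative activity is the variant's cleaved/total read fraction divided by wild type's (minimum 5 reads), averaged across three batches.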
For A28U U41A C50U, the self-cleavage stood at 0.16.
Consider A28G U67C U80C, for which the self-cleavage amounted to 0.37.
Regarding A28U U49C U51C U78C, the self-cleavage was 0.17.
As to A28G U41C U51C U54A A56G, the self-cleavage was found to be 0.32.
As for A28G C40G U80A, the figure is 0.23; as for A28U U67A U72A U80C, 0.34.
In the case of A28G U31C U49C, the self-cleavage came out at 0.17.
With A28G C40U U76A, the self-cleavage was found to be 0.49.
As to A28G C39A U80A, the self-cleavage turned out to be 0.57.
Turning to A28G U54C A65G U69A, the self-cleavage was 0.15.
In the case of A28U C32G A56G U76C, the self-cleavage was 0.08.
A28G U43C U60A U66C U72A: the self-cleavage came out at 0.11.
Under A28G U48C U78C U80C stands 0.21.
Consider A28U A47G C71A, for which the self-cleavage came to 0.23.
As for A28G U48C U74C, the figure is 0.52; as for A28U C38G G52C A75U, 0.14; as for A28U C39U A45G U67C U74G A75G, 0.06.
Regarding A28U C38A U54C U72G, the self-cleavage came out at 0.24.
For A28G G52A A75G U80C, the self-cleavage was found to be 0.29.
Under A28G U49C A64G A77G U80C stands 0.35.
As to A28G U60A U67G, the self-cleavage worked out at 0.1.
Consider A28G U31G G63A, for which the self-cleavage was 0.18.
For A28G U41A U49C U54C U69A, the self-cleavage turned out to be 0.05.
In the case of A28G G30A G33A U54A U78C, the self-cleavage was found to be 0.04.
As for A28G G36A A64G, the self-cleavage came out at 0.26.
A28U U51C U67C U69C: the self-cleavage is 0.18.
Take A28G G33A G36A A64U: the self-cleavage was determined as 0.1.
As for C29A A47G U69A U72C U80C, the figure is 0.12; as for A28U U41A U49C A77U, 0.2; as for A28U G30A U41C U60C C68U, 0.08.
As for A28U C39A U60C, the figure is 0.15.
As to A28G C38U U51A, the self-cleavage came to 0.23.
Under A28U U48C A56G U76A stands 0.36; under A28G C40A C50U, 0.11; under A28G U72C A75G, 0.64.
As for A28U U60A U66C U69C, the figure is 0.24; as for A28U A45G A77U, 0.57; as for A28G U41C U58C U72A U78C, 0.17.
As for A28U A35C A57G A75U U78C, the figure is 0.41; as for A28G U31C G42A, 0.23.
With A28G U41C A56G A65G U66C U78C, the self-cleavage is 0.05.
For the variant C29A A56G U72C U74C, the self-cleavage was determined as 0.2.
Under A28G U69C A77G stands 0.19.
Under A28G U48C A64G U80C stands 0.23.
For the variant A28U C38G A45G C50U U51A U69A, the self-cleavage came to 0.16.
With A28G U54A U60A, the self-cleavage turned out to be 0.24.
Turning to A28G U48C U51A U72G, the self-cleavage was determined as 0.17.
As to A28G U31A A35U U41C, the self-cleavage was found to be 0.1.
As for A28U G70A U76A U80G, the figure is 0.42; as for A28U G36A A57U A64G A77G, 0.05; as for A28U U67A U74C, 0.57.
As for A28G U48C U69G U78C C81U, the figure is 0.07.
Under A28G U41C A65G U67C stands 0.13; under A28G U31C U78C, 0.21; under A28U G52A G61U U72C, 0.54.
A28U U41A A56G: the self-cleavage worked out at 0.13.
For the variant A28G U51A A64U, the self-cleavage stood at 0.15.
As for A28U G33U U80A C81U, the self-cleavage was determined as 0.02.
As for A28U U60A A64G U72G, the figure is 0.18.
On to A28G U31A U69G U74C, for which the self-cleavage was 0.13.
On to A28U U78A U80C, for which the self-cleavage worked out at 0.8.
As to A28G U41C U78C, the self-cleavage amounted to 0.24.
As for A28G U43C U60A, the figure is 0.18; as for A28G U41C A47U, 0.23.
Under A28U U31C U67C stands 0.09; under A28U U49C U67C, 0.13.
Under A28U U49C U67A stands 0.09; under A28G U31C U51C, 0.15.
In the case of A28G U41C A56U A57G U80C, the self-cleavage stood at 0.17.
Turning to C29A G63A A64G U69A U78A, the self-cleavage is 0.1.
A28G C40U U66C: the self-cleavage was found to be 0.21.
For the variant A28G U58C A77G U78C, the self-cleavage came out at 0.13.
In the case of A28G U41C U49C U58C A65G, the self-cleavage was 0.18.
Regarding C29A G53C U58G, the self-cleavage turned out to be 0.1.
For the variant A28G U41A G42C U69A U80A, the self-cleavage was determined as 0.2.
For the variant A28G U48C U80C, the self-cleavage was 0.33.
A28U C37A U80C: the self-cleavage was found to be 0.3.
As to A28G U51C A75U, the self-cleavage is 0.92.
Under A28U U41A A45G A47G U51A U72C stands 0.07; under A28G U41C A57G U76C, 0.37; under A28G U49C G73A, 0.21.
For A28U U43A G63A A65G, the self-cleavage was determined as 0.63.
With A28U U49C U58C A77U U78C, the self-cleavage is 0.08.
Regarding A28U U43A A64G, the self-cleavage stood at 0.84.
Take A28G C62U A77G: the self-cleavage is 0.18.
Consider A28G U54C U78C U80A, for which the self-cleavage was 0.68.
For A28U U31C A64G, the self-cleavage came out at 0.41.
A28G U48C C62U U76A: the self-cleavage was 0.31.
Turning to A28U U54C A56G U67C U78C U80A, the self-cleavage is 0.08.
As to A28G U49C U74C, the self-cleavage is 0.35.
On to A28G U48C C62A G73A, for which the self-cleavage was found to be 0.65.
For A28U A35G A47U A56G A77C, the self-cleavage worked out at 0.23.
Turning to A28U C40A A45G U60C, the self-cleavage is 0.12.
As for A28U A45C A56G U60A C71G A77U, the figure is 0.06; as for A28G C44A A45G U78C, 0.24.
With A28G U54G U69C, the self-cleavage was 0.13.
For the variant A28U U58C U60C U76C, the self-cleavage was found to be 0.28.
Regarding A28U U49C A64U, the self-cleavage is 0.16.
Under A28G U31A U51C G53A stands 0.12; under A28U A77U U80C, 1.13.
Take A28G U49G U66C: the self-cleavage stood at 0.07.
As to A28U U51A U72G, the self-cleavage was 1.01.
Take A28U U48C U69C: the self-cleavage was found to be 0.23.
Under A28G U49A U66C stands 0.16.
Consider A28U C40U U48C, for which the self-cleavage amounted to 0.21.
Consider A28U C38A A45U A47G A56G U76A C81U, for which the self-cleavage amounted to 0.25.
For the variant A28U U41C G42C, the self-cleavage turned out to be 0.55.
Under A28U A35G U48A G55U U67C stands 0.1; under A28U G52C G53U U54G, 0.83; under A28G U67C U72G, 0.13.
Take A28U C38U U51C U80C C81U: the self-cleavage turned out to be 0.76.
Take A28G U67A U78A: the self-cleavage stood at 0.25.
As for A28G U51C G61A U72A, the self-cleavage is 0.21.
With A28G U31C U69A U80G, the self-cleavage was 0.17.
On to C29A G33A U60A, for which the self-cleavage came out at 0.13.
Turning to A28U A45G U58C, the self-cleavage turned out to be 0.16.
For A28U U51A A56G, the self-cleavage is 0.25.
A28U U31C A65G A75G: the self-cleavage is 0.06.
Take A28G U41C G61A: the self-cleavage was 0.25.
For A28G U31C C34G C39U A47G A56G A57G, the self-cleavage is 0.15.
With A28G U69C U76C, the self-cleavage came out at 0.29.
With A28G U31C C59U, the self-cleavage worked out at 0.32.
On to A28G U49C U72G U76A, for which the self-cleavage came out at 0.07.
As for A28G U31C U41A A57U, the figure is 0.13.
In the case of A28G C39U G46A G70U U74C, the self-cleavage came out at 0.43.
For the variant C29A A35U C38U, the self-cleavage is 0.2.
Take A28G G30A U48C U69A: the self-cleavage came out at 0.18.
Take A28U U51G U54C U80C: the self-cleavage is 1.02.
Under A28G U31A G46C U51C stands 0.12.
Regarding A28G U31C U41C U54A U58C U69G U72A, the self-cleavage was determined as 0.07.
As to A28U U60C A64C U74C, the self-cleavage is 0.42.
Take A28U A65G U72C U78C: the self-cleavage was 0.27.
Regarding A28U U48C A56G, the self-cleavage turned out to be 0.18.
As for A28G U41C U49C U60C, the self-cleavage amounted to 0.16.
Regarding A28G U41C U60C, the self-cleavage was 0.15.
For the variant A28G U49C A56G U72C, the self-cleavage came to 0.69.
On to A28G U31G U43C A64G, for which the self-cleavage is 0.11.
As for A28U A45U C50A A65G U66C, the self-cleavage was 0.14.
As to A28G U31C U54A, the self-cleavage is 0.54.
Under A28G U49C U60C U76C stands 0.15.
As to A28G U43C A56G, the self-cleavage was found to be 0.27.
As for A28U C40U U43C A56G, the figure is 0.12; as for A28G C40A U74C, 0.19; as for A28U A77G U80C, 0.9.
Under A28U U43C A56G A75G stands 0.19; under A28G U41A U76C, 0.13.
As for A28U U41A G70U, the self-cleavage turned out to be 0.4.
As for A28G U54C U67C, the figure is 0.14; as for A28G G33A U43A U60A U67C, 0.1; as for C29A A35G U51A A57G U69C U74C, 0.56.
Take A28U A64G U67A U72C: the self-cleavage is 0.16.
For the variant A28G U43A G63U U76G A77U, the self-cleavage was found to be 0.97.
For A28G G30C G42A U48A U58G U72C, the self-cleavage amounted to 0.07.
Consider A28G U54C G55C U74C, for which the self-cleavage turned out to be 0.35.
In the case of A28U C38U A45G U80C, the self-cleavage is 0.5.
In the case of A28U U31C A65G U80C, the self-cleavage worked out at 0.11.
With A28U C32G A45G U48A U58C U69C, the self-cleavage is 0.09.
As for A28U U54C U69A A77U U80A, the figure is 0.4; as for A28U A45U A65G U69C U74C, 0.12.
In the case of A28U U49A A65G, the self-cleavage was 0.09.
As to A28G C68A U74G, the self-cleavage amounted to 0.04.
As for A28G U41C U54C U60C U67C, the figure is 0.19; as for A28U A35G A64G U69G U78C, 0.29; as for C29A C37U A64G, 0.2.
As to A28U A35G A45U U60A, the self-cleavage was 1.29.
For A28U A45C A65G, the self-cleavage came out at 0.16.
Under A28U A47U U72C U74A stands 0.28.
